The record followed here is paper PMC11532958, “Role of protein domains in trafficking and localization of the voltage-gated sodium channel β2 subunit” (The Journal of Biological Chemistry, 2024).

By stoichiometry N is commonly meant the number of molecules, sites or subunits per partner or assembly.

The data set concerns the molecule itself. The data set can be described thus: non-reducing SDS-PAGE with Western blot; lysates of MDCK cells transiently expressing WT or mutant β2-YFP, prepared the day after transfection; DTT omitted and samples not heated, in parallel with reducing conditions (DTT); parental cells or cells stably expressing NaV1.5-YFP (comparable pattern). A general note: A western blot detects proteins with antibodies after separation by electrophoresis.

B1: β2-YFP C127A (natural protein)
chain: not shown
notes: source: MDCK cells, transiently transfected, in lysate; not shown: YFP, C-terminal, kept
With B1, the “stoichiometry N” value is about 4.

B2: β2-YFP C50A (natural protein)
chain: not shown
notes: voltage-gated sodium channel β2 subunit, human, SCN2B cDNA (CCDS 8390.1) with Cys-50 changed to Ala; source: MDCK cells, transiently transfected, in lysate; not shown: YFP, C-terminal, kept
In the case of B2, the “stoichiometry N” value is about 4.
